The supplement of paper PMC8728848
The list shows a part of the results.

Tests used:
Assay in all cases: glycan array binding signal (z-score within array); higher = stronger binding
Conditions in all cases: glycan notation: IUPAC condensed, linker removed
Gal(b1-2)Gal = target: Gal(b1-2)Gal
Procedure, shortened: (§1)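 Negative Z-scores can be read as non-binding. The Z-score is calculated within each array and then averaged across arrays of one protein sequence at different concentrations or buffers and across linkers. Arrays, 3228 in all, were curated from the Consortium for Functional Glycomics database and kept only where the protein sequence was available.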

Gal(b1-3)Gal = target: Gal(b1-3)Gal
Procedure, shortened: as §1

Gal(b1-3)Gal(b1-4)GlcNAc = target: Gal(b1-3)Gal(b1-4)GlcNAc
Procedure, shortened: as §1

Gal(b1-3)GalNAc = target: Gal(b1-3)GalNAc
Procedure, shortened: as §1

[1] = target: Gal(b1-3)GalNAc(a1-3)[Fuc(a1-2)]Gal(b1-4)Glc
Procedure, shortened: as §1

[2] = target: Gal(b1-3)GalNAc(a1-3)[Fuc(a1-2)]Gal(b1-4)GlcNAc
Procedure, shortened: as §1

Gal(b1-3)GalNAc(b1-3)Gal = target: Gal(b1-3)GalNAc(b1-3)Gal
Procedure, shortened: as §1

[3] = target: Gal(b1-3)GalNAc(b1-3)Gal(a1-4)Gal(b1-4)Glc
Procedure, shortened: as §1

[4] = target: Gal(b1-3)GalNAc(b1-4)Gal(b1-4)Glc
Procedure, shortened: as §1

[5] = target: Gal(b1-3)GalNAc(b1-4)[Neu5Ac(a2-3)]Gal(b1-4)Glc
Procedure, shortened: as §1

Gal(b1-3)GlcNAc = target: Gal(b1-3)GlcNAc
Procedure, shortened: as §1

[6] = target: Gal(b1-3)GlcNAc(a1-3)Gal(b1-4)GlcNAc
Procedure, shortened: as §1

[7] = target: Gal(b1-3)GlcNAc(a1-6)Gal(b1-4)GlcNAc
Procedure, shortened: as §1

Gal(b1-3)GlcNAc(b1-2)Man = target: Gal(b1-3)GlcNAc(b1-2)Man
Procedure, shortened: as §1

[8] = target: Gal(b1-3)GlcNAc(b1-2)Man(a1-3)[Gal(b1-3)GlcNAc(b1-2)Man(a1-6)]Man(b1-4)GlcNAc(b1-4)GlcNAc
Procedure, shortened: as §1

[9] = target: Gal(b1-3)GlcNAc(b1-2)Man(a1-3)[Gal(b1-3)GlcNAc(b1-2)Man(a1-6)]Man(b1-4)GlcNAc(b1-4)[Fuc(a1-6)]GlcNAc
Procedure, shortened: as §1

[10] = target: Gal(b1-3)GlcNAc(b1-2)Man(a1-3)[GlcNAc(b1-4)][Gal(b1-3)GlcNAc(b1-2)Man(a1-6)]Man(b1-4)GlcNAc(b1-4)GlcNAc
Procedure, shortened: as §1

[11] = target: Gal(b1-3)GlcNAc(b1-2)[Gal(b1-3)GlcNAc(b1-6)]Man(a1-6)[Gal(b1-3)GlcNAc(b1-2)Man(a1-3)]Man(b1-4)GlcNAc(b1-4)GlcNAc
Procedure, shortened: as §1

[12] = target: Gal(b1-3)GlcNAc(b1-3)Gal(b1-3)GlcNAc
Procedure, shortened: as §1

[13] = target: Gal(b1-3)GlcNAc(b1-3)Gal(b1-4)Glc
Procedure, shortened: as §1

[14] = target: Gal(b1-3)GlcNAc(b1-3)Gal(b1-4)GlcNAc
Procedure, shortened: as §1

[15] = target: Gal(b1-3)GlcNAc(b1-3)Gal(b1-4)GlcNAc(b1-2)Man(a1-3)[Gal(b1-3)GlcNAc(b1-3)Gal(b1-4)GlcNAc(b1-2)Man(a1-6)]Man(b1-4)GlcNAc(b1-4)GlcNAc
Procedure, shortened: as §1

[16] = target: Gal(b1-3)GlcNAc(b1-3)Gal(b1-4)GlcNAc(b1-2)[Gal(b1-3)GlcNAc(b1-3)Gal(b1-4)GlcNAc(b1-6)]Man(a1-6)[Gal(b1-3)GlcNAc(b1-3)Gal(b1-4)GlcNAc(b1-2)Man(a1-3)]Man(b1-4)GlcNAc(b1-4)[Fuc(a1-6)]GlcNAc
Procedure, shortened: as §1

[17] = target: Gal(b1-3)GlcNAc(b1-3)Gal(b1-4)GlcNAc(b1-3)Gal(b1-4)GlcNAc(b1-2)[Gal(b1-3)GlcNAc(b1-3)Gal(b1-4)GlcNAc(b1-3)Gal(b1-4)GlcNAc(b1-6)]Man(a1-6)[Gal(b1-3)GlcNAc(b1-3)Gal(b1-4)GlcNAc(b1-3)Gal(b1-4)GlcNAc(b1-2)Man(a1-3)]Man(b1-4)GlcNAc(b1-4)[Fuc(a1-6)]GlcNAc
Procedure, shortened: as §1

[18] = target: Gal(b1-3)GlcNAc(b1-3)Gal(b1-4)GlcNAc(b1-6)[Gal(b1-3)GlcNAc(b1-3)]Gal(b1-4)Glc
Procedure, shortened: as §1

[19] = target: Gal(b1-3)GlcNAc(b1-3)Gal(b1-4)[Fuc(a1-3)]GlcNAc
Procedure, shortened: as §1

[20] = target: Gal(b1-3)GlcNAc(b1-3)Gal(b1-4)[Fuc(a1-3)]GlcNAc(b1-6)[Gal(b1-3)GlcNAc(b1-3)]Gal(b1-4)Glc
Procedure, shortened: as §1

[21] = target: Gal(b1-3)GlcNAc(b1-3)GalNAc
Procedure, shortened: as §1

[22] = target: Gal(b1-3)GlcNAc(b1-6)Gal(b1-4)GlcNAc
Procedure, shortened: as §1

[23] = target: Gal(b1-3)GlcNAc(b1-6)GalNAc
Procedure, shortened: as §1

[24] = target: Gal(b1-3)GlcNAc(b1-6)[Gal(b1-3)]GalNAc
Procedure, shortened: as §1

Gal(b1-3)GlcNAc6S = target: Gal(b1-3)GlcNAc6S
Procedure, shortened: as §1

[25] = target: Gal(b1-3)[Fuc(a1-4)]GlcNAc
Procedure, shortened: as §1

[26] = target: Gal(b1-3)[Fuc(a1-4)]GlcNAc(b1-2)Man
Procedure, shortened: as §1

[27] = target: Gal(b1-3)[Fuc(a1-4)]GlcNAc(b1-2)Man(a1-3)[Gal(b1-3)[Fuc(a1-4)]GlcNAc(b1-2)Man(a1-6)]Man(b1-4)GlcNAc(b1-4)[Fuc(a1-6)]GlcNAc
Procedure, shortened: as §1

[28] = target: Gal(b1-3)[Fuc(a1-4)]GlcNAc(b1-3)Gal(b1-3)[Fuc(a1-4)]GlcNAc
Procedure, shortened: as §1

[29] = target: Gal(b1-3)[Fuc(a1-4)]GlcNAc(b1-3)Gal(b1-4)[Fuc(a1-3)]GlcNAc
Procedure, shortened: as §1

B1: SP15308A-bot-339-19-339 (Bacteroides ovatus) (protein)
chain: ACNNEWEDEQYEQYISFKSPIPAGGEGVTDIYVRYKEDGKVTYRLPIVVSGSTTNTLDREVHIAVDKDTLETLNIERFSIHRPGLWYTALEEDKYDFPKTVHISAGSSVEQLNIDFNLQGIDMLEKWVLPLTIVDDPSYNYKSHPRKNYAKALLRVIPFNNYSGSYTSSAMKVYTYINGKPDTNARTANKRTGYVINDNTVFFYAGLISEDLDKEVREKYKINVHFNEDGTLHMEQGDPTNKMKFELIGTPTYSKTSVMDATRPYLERRYVQIMFEYDFEDFSYGGNGVDVIPIKYKVEGSMTLQRNINTQIPDEDQQIEW
Q: What does the source list for B1?
A: glycan array binding signal (z-score) (Gal(b1-2)Gal): 0.055; glycan array binding signal (z-score) (Gal(b1-3)Gal): 0.251; glycan array binding signal (z-score) (Gal(b1-3)Gal(b1-4)GlcNAc): -0.593; glycan array binding signal (z-score) (Gal(b1-3)GalNAc): -0.057; glycan array binding signal (z-score) [1]: -0.521; glycan array binding signal (z-score) [2]: -0.695; glycan array binding signal (z-score) (Gal(b1-3)GalNAc(b1-3)Gal): -0.698; glycan array binding signal (z-score) [3]: -0.489; glycan array binding signal (z-score) [4]: -0.149; glycan array binding signal (z-score) [5]: -0.5; glycan array binding signal (z-score) (Gal(b1-3)GlcNAc): 0.061; glycan array binding signal (z-score) [6]: 0.217; glycan array binding signal (z-score) [7]: -0.414; glycan array binding signal (z-score) (Gal(b1-3)GlcNAc(b1-2)Man): 2.76; glycan array binding signal (z-score) [8]: 0.261; glycan array binding signal (z-score) [9]: -0.152; glycan array binding signal (z-score) [10]: -0.153; glycan array binding signal (z-score) [11]: -0.325; glycan array binding signal (z-score) [12]: 0.024; glycan array binding signal (z-score) [13]: -0.437; glycan array binding signal (z-score) [14]: 0.03; glycan array binding signal (z-score) [15]: 0.086; glycan array binding signal (z-score) [16]: 0.558; glycan array binding signal (z-score) [17]: 0.752; glycan array binding signal (z-score) [18]: 0.016; glycan array binding signal (z-score) [19]: -0.575; glycan array binding signal (z-score) [20]: 0.183; glycan array binding signal (z-score) [21]: 0.029; glycan array binding signal (z-score) [22]: -0.558; glycan array binding signal (z-score) [23]: 0.162; glycan array binding signal (z-score) [24]: -0.274; glycan array binding signal (z-score) (Gal(b1-3)GlcNAc6S): -0.287; glycan array binding signal (z-score) [25]: -0.203; glycan array binding signal (z-score) [26]: 0.303; glycan array binding signal (z-score) [27]: 0.611; glycan array binding signal (z-score) [28]: -0.08; glycan array binding signal (z-score) [29]: -0.228
